According to PMC4336329 (PLoS ONE, 2015):
Screen size: about 310,000 compounds; about 2,200 (0.71%) showed an effect of 50% or more. The effect is printed as a negative number. This is one part of the list.

Biological target: human ether-à-go-go-related gene (hERG) potassium channel (human, UniProt Q12809)
Experiment: primary screen, population patch clamp on CHO cells stably expressing hERG

human ether-à-go-go-related gene (hERG) potassium channel, sequence (Q12809 whole entry, looked up): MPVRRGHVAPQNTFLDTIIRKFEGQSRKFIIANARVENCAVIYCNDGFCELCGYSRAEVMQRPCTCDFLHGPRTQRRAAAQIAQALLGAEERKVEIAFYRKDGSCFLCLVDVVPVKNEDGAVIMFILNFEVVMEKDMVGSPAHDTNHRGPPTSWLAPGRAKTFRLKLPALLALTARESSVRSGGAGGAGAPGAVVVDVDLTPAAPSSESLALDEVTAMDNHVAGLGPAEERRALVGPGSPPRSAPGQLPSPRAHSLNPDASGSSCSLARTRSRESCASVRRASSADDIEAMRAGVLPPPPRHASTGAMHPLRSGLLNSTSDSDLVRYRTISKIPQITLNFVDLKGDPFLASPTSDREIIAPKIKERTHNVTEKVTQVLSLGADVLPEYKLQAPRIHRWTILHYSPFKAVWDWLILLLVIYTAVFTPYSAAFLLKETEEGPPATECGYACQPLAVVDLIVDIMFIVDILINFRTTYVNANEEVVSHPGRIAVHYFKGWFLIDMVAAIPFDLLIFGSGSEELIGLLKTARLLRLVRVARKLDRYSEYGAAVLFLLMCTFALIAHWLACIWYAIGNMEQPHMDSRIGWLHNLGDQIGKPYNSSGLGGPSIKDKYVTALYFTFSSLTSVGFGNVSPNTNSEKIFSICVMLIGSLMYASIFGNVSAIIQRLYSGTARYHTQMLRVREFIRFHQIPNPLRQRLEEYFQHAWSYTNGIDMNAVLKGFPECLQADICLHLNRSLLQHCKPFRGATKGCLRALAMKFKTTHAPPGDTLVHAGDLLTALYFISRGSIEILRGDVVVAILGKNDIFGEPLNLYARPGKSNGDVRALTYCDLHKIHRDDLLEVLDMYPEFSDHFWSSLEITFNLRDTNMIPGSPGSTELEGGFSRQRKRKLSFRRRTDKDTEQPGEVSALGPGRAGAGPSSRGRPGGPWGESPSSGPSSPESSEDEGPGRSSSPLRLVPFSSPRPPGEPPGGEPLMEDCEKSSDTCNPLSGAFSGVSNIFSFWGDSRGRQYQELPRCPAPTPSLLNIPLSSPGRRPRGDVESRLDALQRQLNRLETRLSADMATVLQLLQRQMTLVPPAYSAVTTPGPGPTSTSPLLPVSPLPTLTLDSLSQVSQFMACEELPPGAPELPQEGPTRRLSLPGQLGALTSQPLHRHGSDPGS

| SMILES | hERG current change (%, negative = inhibition) at 1uM [%] |
| --- | --- |
| CCN(C(=O)COC(=O)c1sccc1C)c1c(N)n(Cc2ccccc2)c(=O)[nH]c1=O | -2.18 |
| Cc1ccc(C)c(S(=O)(=O)NCc2ccc(C(=O)N3CCCCCC3)cc2)c1 | 13.5 |
| CCN(CC)C(=O)COc1ccc(C=O)cc1OC | -1.25 |
| C=CCOc1ccc(Cl)cc1CNC1CCCC1.Cl | 1.86 |
| O=[N+]([O-])c1cccc(-c2nc(-c3ccccn3)no2)c1 | 9.33 |
| CC1CCN(C(=O)c2ccccc2NC(=O)c2cccs2)CC1 | -3.27 |
| CC1=CC(C/C(C)=C/COc2ccc3ccc(=O)oc3c2)OC1=O (stereo not drawn) | 10.5 |
| COc1ccccc1NC(=O)c1ccc(-c2ccccc2[N+](=O)[O-])o1 | 11.6 |
| O=C(Nc1cccc(Cl)c1Cl)c1ccccc1NC(=O)C1CC=CCC1C(=O)O (stereo not drawn) | 8.07 |
| COc1cccc(NC(=S)N(Cc2cccc(Br)c2)CC2CCC(C(=O)O)CC2)c1 (stereo not drawn) | 12.8 |
| CCc1ccc(NC(=O)Cn2nnc(-c3ccc(C)cc3-n3cnnn3)n2)cc1 | 12.5 |
| Cc1cc(OC(C)C(=O)N[C@H](C(=O)O)c2ccccc2)c2c3c(c(=O)oc2c1)CCC3 (stereo partly drawn) | -4.53 |
| CCCCCCn1c(N2CCCC2)nc2c1c(=O)[nH]c(=O)n2C | -7.89 |
| Cc1nn(CC2CCCCC2)c(N)c1-c1ccccc1 | -1.03 |
| O=C(CCNS(=O)(=O)c1cccc2nonc12)NC1CCCCCC1 | 7.69 |
| CC(C)CCNC(=O)c1cc(-c2cccs2)nc2ccccc12 | 2.51 |
| CC(=O)Nc1cccc(OCc2c(F)cccc2Cl)c1 | 4.98 |
| Cc1cc(C(=O)N/N=C/c2ccc(OCc3ccccc3)cc2)c(C)o1 | 14.6 |
| NC(=O)NNC1=Nc2cccc3cccc1c23 | 3.23 |
| Cn1c(Cn2cnc3ccccc32)nc2ccccc21 | 12.4 |
| COC(=O)C1CCN(S(C)(=O)=O)CC1 | 1.7 |
| COc1ccc(NC(=O)C2CCC(C)(C(=O)O)C2(C)C)cc1 (stereo not drawn) | 11.1 |
| Cc1onc(-c2ccccc2Cl)c1C(=O)NCCCN1CCOCC1 | 12.9 |

| SMILES | hERG current change (%, negative = inhibition) at 1uM [%] |
| --- | --- |
| C[C@@H]1CN(C(=O)c2nc3ccc(Cl)cn3c2CN(C)CCc2cnn(C)c2)C[C@H](C)O1 | 12.3 |
| O=C(Nc1ccc2ccccc2c1)N1CCN(c2ncccc2C(F)(F)F)CC1 | -1.48 |
| CCOc1ccccc1Nc1nc2ccccc2[nH]1 | 10.5 |
| CN1CCC(=O)N([C@H](CN=[N+]=[N-])Cc2ccccc2)CC1 | 13.9 |
| CCOc1cc(NC(=S)NCC2CCCO2)c(OCC)cc1NC(=O)c1ccccc1F (stereo not drawn) | 8.15 |
| CC1(C)C(=O)C2(CCCC2)C(=O)OC1c1ccco1 (stereo not drawn) | -7.59 |
| Cc1ncc(CN2CCCC(C(=O)Nc3ccc(-c4cscn4)cc3)C2)cn1 (stereo not drawn) | 1.21 |
| N#Cc1ccc(NC(=O)CN2C(=O)NC3(CCCC3)C2=O)cc1 | 3.38 |
| CCN(CC)C(=O)CP(=O)(c1ccccc1)c1ccccc1 | 12.2 |
| O=C(Nc1cccc2ccccc12)N(CCO)C1CCS(=O)(=O)C1 (stereo not drawn) | 15.7 |
| C=C(C)[C@@H]1CC[C@]2(C(=O)O)CC[C@]3(C)C(CCC4[C@@]5(C)CC[C@H](O)C(C)(C)C5CC[C@]43C)C12 (stereo partly drawn) | 5.29 |
| Cc1ccccc1CC1(CO)CCCN(Cc2ccc(C#CC(C)(C)O)cc2)C1 (stereo not drawn) | 6.78 |
| O=C(CCCN1C(=O)/C(=C\c2cccs2)SC1=S)NNC(=O)c1cccnc1 | 17.5 |
| CCOc1ccc2c(c1)C(c1ccc(C)o1)=NNC(c1ccncc1)=N2 | 13.8 |
| CC(=O)O.O=C(O)c1ccc(-c2nc(-c3ccccc3)c(-c3ccccc3)[nH]2)cc1 | 7.3 |
| COCCNC(=O)c1ccc2snnc2c1 | 9.44 |
| CCC(C(=O)NC1CCCCCC1)n1nc(C)c2c(C)n(-c3ccccc3)nc2c1=O (stereo not drawn) | -3.48 |
| O=C(NNc1ccccc1[N+](=O)[O-])NC1CCCCC1 | 13.6 |
| Cn1cccc1C(=O)C(=O)Nc1ccccc1 | 8.22 |
| CCOC(=O)N1CCN(c2ccc(O)cc2)CC1 | 9.98 |
| Cc1ccc(C)c(NC(=S)N2CCCC2)c1 | 11 |
| CSc1ncccc1C(=O)OCC(=O)N(CC(C)C)C1CCS(=O)(=O)C1 (stereo not drawn) | 4.63 |
